Data reported in PubChem BioAssay AID686979 (National Center for Advancing Translational Sciences (NCATS), 2013).
In all, about 420,000 compounds went through this assay and about 50,000 (12%) were called active. Inconclusive means that the source gave no clear call. Such entries were picked first, then a sample of the others. The call rests on the fitted dose curve; in most records, active means well fitted inhibition curve with a large enough effect; inconclusive means small, poorly fitted or top-dose-only effect; inactive means flat fitted curve, though single readings scatter. No potency is given beside an inconclusive call; the fits are too rough.

Experiment: qHTS for Inhibitors of human tyrosyl-DNA phosphodiesterase 1 (TDP1): qHTS in cells in presence of CPT; further: nearly all actives have a fitted effect of over 55% in size
Conditions: chicken DT40 Tdp1-/-;hTDP1 cells + 20 nM CPT, ATP luminescence, 48 h; series mostly up to 46.2 µM
Description: Human tyrosyl-DNA phosphodiesterase 1 (TDP1) is a novel repair gene, and we propose to use it as a new target for anticancer drug development. TDP1 is not an essential protein, but under treatment with topoisomerase I poison (camptothecin: CPT), TDP1 works as a critical factor for cell survival. To directly identify novel TDP1 inhibitors active in a cellular environment, we have knocked-out the Tdp1 gene in chicken DT40 cells (Tdp1-/-) and generated a complemented counterpart cells that contains a stable transfection of the human TDP1 gene (Tdp1-/-;hTDP1 cells). For the primary screen, Tdp1-/-;hTDP1 cells will be exposed to small molecules in the presence or absence of CPT, and their growth kinetics will be evaluated after 48 hours by measuring ATP activity. […] The hit compounds will then be evaluated in the presence or absence of CPT using Tdp1-/- cells. […] In tertiary assays, biochemical gel-based assays will be used to assess whether the hit compounds specifically target TDP1. To this end, we have screened this cell line against the MLSMR in two primary screens. In one screen we add CPT and in the other we screen in the absence of CPT; this AID represents the screen where CPT was present. NIH Chemical Genomics Center [NCGC] NIH Molecular Libraries Probe Centers Network [MLPCN] MLPCN Grant: MH095538 Assay Submitter (PI): Yves Pommier, NCI
DT40-hTDP1 cells with 20 nM Camptothecin (add 20 microL of 1 mM CPT stock in 1 L of cell culture medium) were dispensed at 400 cells/5microL/well in tissue culture treated 1536-well white wall/solid bottom assay plates (Greiner Bio-One North America, NC, U.S.A.) using a Multidrop Combi 8 channel dispenser (Thermo Fisher, Waltham, MA, USA). 23 nL compounds and controls were transferred using the pin tool (Kalypsys, San Diego, CA, USA) to the assay plates. The assay plates were then incubated at 37 masculineC for a minimum 48 hr. Three microL of Cell Titer Glo solution was added to the plates and incubated at RT in dark for 30 min. Luminescence was read using ViewLux (Perkin Elmer) with 1 sec exposure slow speed, high gain and 2x binning.
Potency means the concentration at half of the fitted maximal effect; tags describe the fitted curve by direction and shape.

Row | SMILES | Potency
1 | COC(=O)c1ccc(C(=O)OC)c(-n2c(=O)c3ccccc3c3ccccc3c2=O)c1 | inconclusive [inhibitor, single point]
2 | Cc1ccccc1CN1C(=O)c2ccccc2Sc2ccc(C(=O)N3CCOCC3)cc21 | inconclusive [inhibitor, single point]
3 | CC(=O)N1CCCc2ccc(NS(=O)(=O)c3ccc(C)cc3)cc21 | inconclusive [inhibitor, single point]
4 | C[C@H](NC(=O)c1ccco1)C(=O)OCC(=O)N1CC(=O)Nc2ccccc21 | inactive
5 | CCOC(=O)C1=C(C)NC(C)=C(C(=O)OCC)C1C(=O)OCC(=O)N1CCc2ccccc2C1 | inconclusive [inhibitor, single point]
6 | O=C(OCC(=O)N1CCc2ccccc21)C1=COCCO1 | inconclusive [inhibitor, single point]
7 | COc1ccc2c(c1)C1=C(CC2)C(c2ccc(C)cc2)NC(=S)N1 (stereo not given) | inconclusive [inhibitor, single point]
8 | O=C(Nc1cc(F)ccc1F)c1cnn2c1NC(=C1CC1)C=C2C(F)F | inconclusive [inhibitor, partial curve]
9 | COC(=O)C1=C(N)Oc2cc(C)n(C)c(=O)c2C1c1ccc(Cl)cc1 (stereo not given) | inconclusive [inhibitor, partial curve]
10 | Cc1cccc(NC(=O)CSc2nc3c(oc4ccccc43)c(=O)n2-c2ccccc2)c1C | inconclusive [inhibitor, single point]
11 | O=C(Cn1sc2ccccc2c1=O)Nc1ccc(Cl)cc1 | active: 5.17 µM
12 | CCOC(=O)N1CCN(C(=O)C2CCN(S(=O)(=O)c3ccc(Br)s3)CC2)CC1 | inconclusive [inhibitor, partial curve]
13 | COc1ccc(C(=O)COC(=O)C(O)c2ccccc2)c(OC)c1 (stereo not given) | inactive
14 | CCc1cc(=O)oc2cc(C)c3c(-c4ccc(F)cc4)coc3c12 | inactive
15 | CC(C)OC(=O)c1c(-c2ccc(C(C)C)cc2)csc1NC(=O)C1CCCO1 (stereo not given) | inconclusive [inhibitor, single point]
16 | C=CCC1(N(C(C)=O)c2ccccc2C)CCCCC1 | inactive
17 | CCOC(=O)c1ccc(-n2c(-c3ccco3)nc3ccccc3c2=O)cc1 | active: 11.6 µM
18 | COc1ccc(-c2cc(C(=O)N3CC4(C)CC3CC(C)(C)C4)no2)cc1 (stereo not given) | inconclusive [inhibitor, single point]
19 | C[C@@H](C(=O)OCn1nnc2ccccc2c1=O)N1C(=O)C2CCCCC2C1=O (stereo not given in full) | inactive
20 | CCOc1ccc(NC(=O)COC(=O)c2cc(S(=O)(=O)N3CCCC3)ccc2C)cc1 | active: 20.6 µM
21 | Cc1ccc2nc(C3CCCN(C(=S)Nc4ccccc4C)C3)[nH]c2c1 (stereo not given) | inconclusive [inhibitor, single point]
22 | COc1ccc(NC(=O)Nc2ccc(Cc3ccncc3)cc2)cc1OC | inactive
23 | O=C(Nc1ccc2nc(-c3cccnc3)[nH]c2c1)c1ccco1 | inconclusive [inhibitor, single point]

Row | SMILES | Potency
24 | Cc1ccc(S(=O)(=O)N2CCC(C(=O)Nc3cc(C)ccc3C)CC2)cc1 | inconclusive [inhibitor, single point]
25 | NN=C1c2ccccc2-c2ccc(N)cc21 | inconclusive [inhibitor, single point]
26 | O=C1NC(=S)N/C1=C\c1ccc(N2CCOCC2)cc1 | active: 16.4 µM
27 | Cc1ccc(S(=O)(=O)NNc2ccccc2)c(C)c1 | inconclusive [inhibitor, single point]
28 | COc1cc(CNCc2ccc(OC)cc2OC)cc(OC)c1 | inconclusive [inhibitor, single point]
29 | COc1ccccc1N1CCN(C2CCCN(S(=O)(=O)c3ccc(C)cc3)C2)CC1 (stereo not given) | inconclusive [inhibitor, single point]
30 | COc1ccc(NC(=S)Nn2cnnc2)cc1OC | inactive
31 | COC(=O)C1=C(CSc2nc3c(cc2C#N)CN(C)CC3)OC(N)=C(C#N)C1c1ccc(F)cc1 (stereo not given) | inactive
32 | CCO[C@H]1OC(C(=O)N2CCN(Cc3ccc4c(c3)OCO4)CC2)=C[C@@H](C2CCCCC2)[C@@H]1CCCO | active: 14.6 µM
33 | COc1ccccc1OCC(O)Cn1c(=N)n(Cc2ccccc2)c2ccccc21 (stereo not given) | active: 20.6 µM
34 | CC(C)(C)OC(=O)N1CCC(CC2CC(c3ccc(Cl)cc3)=NO2)(C(=O)NCC2CCCCC2)CC1 (stereo not given) | active: 23.1 µM
35 | CCOC(=O)Nc1cccc(OCC(=O)Nc2ccc3c(c2)CCC3)c1 | inconclusive [inhibitor, single point]
36 | CCOC(=O)c1c(NC(=O)C2CCCO2)sc(C(=O)OC(C)(C)C)c1C (stereo not given) | inconclusive [inhibitor, single point]
37 | Cc1cccc(Nc2nnc(SCC(=O)NCC3CCCO3)s2)c1 (stereo not given) | inactive
38 | Cc1cccc(N2C(=O)CC(n3ccnc3)C2=O)c1C (stereo not given) | inactive
39 | Cc1ccccc1-n1nc(C)c2cc(C(=O)N3CCN(S(=O)(=O)c4ccc(F)cc4)CC3)sc21 | active: 10 µM
40 | CCCCCNC(=O)C(c1ccc(C(F)(F)F)cc1)n1c(=O)c(-c2ccco2)nc2ccccc21 (stereo not given) | inconclusive [inhibitor, single point]
41 | COc1cc(NC(=O)c2cccs2)c(OC)cc1NC(=O)CCn1nnc2ccccc21 | inconclusive [inhibitor, single point]
42 | O=C(CCN1C(=O)[C@@H]2Cc3ccccc3CN2C1=O)NCc1ccccc1Cl | inactive
43 | NS(=O)(=O)c1ccc(-n2nncc2C23CC4CC(CC(C4)C2)C3)cc1 | inconclusive [inhibitor, single point]
44 | COc1cccc(CN2CC(C(=O)N(C)Cc3[nH]c4ccccc4c3C)CCC2=O)c1 (stereo not given) | inconclusive [inhibitor, single point]
45 | CCn1nc(C)c(CN2CCc3c([nH]c4ccccc34)C2C(C)(C)C)c1C (stereo not given) | inconclusive [inhibitor, single point]
